# Test results published in the supplement of paper PMC10681739.
# ± gives the standard deviation of the averaged measurements. The full ranking holds about 4,000 sequences; the median of “arbitrary fluorescence units” is about 830, and the highest 2% start at about 6,500. Most of the strongest results are missing from this list.
# Biological target: RUNX1 (UniProt Q01196)
# Experiment: RUNX1 binding intensity (PBM fluorescence), RUNX1 alone (arbitrary fluorescence units); higher = stronger binding
# Settings: RUNX1 concentration 2 nM; ETS1 concentration 0 nM
# Description: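 gcPBM on 36-bp genomic-derived probes (partner site mutated) containing one RUNX1 site and no ETS1 site. Recombinant human RUNX1 (2 nM) was incubated alone or with ETS1 (25 nM) and detected by anti-RUNX1 antibody fluorescence. Values are medians over 4 replicate spots (not normalised). The probes sit in constant array flanks that are not printed.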
# 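Note: Full-length recombinant human RUNX1 bound to double-stranded DNA microarray spots, detected with an Alexa488-labelled secondary antibody after the anti-RUNX1 primary, read as scanned spot fluorescence.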
# UniProt Q01196, sequence (Q01196 whole entry): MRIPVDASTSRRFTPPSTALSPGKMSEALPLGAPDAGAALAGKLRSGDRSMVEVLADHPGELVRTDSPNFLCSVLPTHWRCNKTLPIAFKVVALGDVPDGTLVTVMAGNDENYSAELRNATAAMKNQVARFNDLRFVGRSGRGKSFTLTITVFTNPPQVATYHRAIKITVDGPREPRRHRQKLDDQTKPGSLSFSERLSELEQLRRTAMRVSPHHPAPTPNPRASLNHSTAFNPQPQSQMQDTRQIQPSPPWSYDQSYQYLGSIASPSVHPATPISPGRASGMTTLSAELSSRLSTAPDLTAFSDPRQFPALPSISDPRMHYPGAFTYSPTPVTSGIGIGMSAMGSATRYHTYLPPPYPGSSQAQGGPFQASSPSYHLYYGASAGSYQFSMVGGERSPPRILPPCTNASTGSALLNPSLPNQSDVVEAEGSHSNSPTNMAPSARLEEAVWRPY
row,Sequence,RUNX1 binding intensity
1,GGAGGCCGTAAATGCTGAGTGTGCGGGGCCGAACGT,710
2,AGCTGGGGGCGGTTGTGGAGGGAGGTCCCTTGGCAT,764
3,AAACTGGCCACAGAGCAGTCTCCGTAAGCTGCCTCT,896
4,CACTGATTAAGAGCAAGTGTGTGTGGTTATTACCGT,748
5,CCCGGCTGTGGGCCCAGGAACTACATTGCCTAGAAG,839
6,TCTGAGAATGCAGCATATGTGTGTGGTCTCTAGTCA,755
7,CCCCCTGCGGCCAGGAGCAGTCCGAAAGTCGCAGCC,861.1 ± 7
8,TGAAGCAGGCCGAAGTGCTGTGGTTTCTGGCGACTG,959
9,AGCCTCCCGTACGCCGTCGCCCCCACACACGCCCGC,896
10,CCTTGGGCTTTGTGGTCTCCCACATACGGCCTGCCC,1130
11,ACCGCCGGGAGTTTCTGCCGCGGCTTTGCGGGGACG,791
12,TGCAGCGCAGCCTGGGACGTGCGGGCGGTGCATGAG,664
13,CACGTGTGCGGGAGGGAAGCAGCAAGTGACAGCGGG,744
14,TCCTCCCACGGGAATTGCCGTAGGACCGCAGCCCGA,925
15,TCCTCCACCGCAGAAAGGCAACTGGATCCTACCCGG,2280
16,CCTGTCCGGGAGTCCTGAGAGGGAATCGCCCGCAAA,821
17,CCAGATTAGGTAACCCACCCGGCCCACAAAAAGCGG,903
18,GGGATCTACTGCCTCTCTCGGCCGCGGCCGCAGCAC,849
19,GCTCGCGTCATCATGCAGCGCCGACACCACAGACAC,822
20,AACTTGTGGGGTTTTCTTCTGATCTTGCTCCCCGCT,998
21,ACTGTGTGTGGTGTTCCACAGAGGACACTGCAAAGC,759
22,CGAATGTAACCACCTCTCGGCCCGGCCGTAAGAAGC,806
23,TGCGAGAGGAACAAGCTGGCTGCGGCCAAGTGCAGG,621
24,GCCAGGAGGACTTTCGGGTGGGTGTGGTATCTGCGA,717
25,AAAACGCGCAAATACGGTGGCTGCGGCCCGCGGGCA,693

row,Sequence,RUNX1 binding intensity
1,TCAGAAAACCCAGAAACCCTAATTGTCCCCACAGAA,884
2,ACTGATGCGGTCACAGACAGCAAAGGCAGCAAACAG,1650
3,AAACTAGTTCCCCATATCATCTGTGGCTTGCACAAC,973
4,CTCGCAACCACAGCAGCCGCGCAGCAAGTGCCTGTA,938
5,GCTTCAGCTCCAACCCGCGCACTTCCAGAGAACGGG,790
6,AATAAACAGAAAGGTCTCTTGGAGCTGTGGTCTTGG,710
7,TAATGCGGTGACATCAGCAAGGCCAAACAGAAAGCT,929
8,ACGTAGACATGAAAGTAATGTGGTTCAGGACTGAGT,776
9,GAGAGCTGAGCGCAAGCTCAGCTGTGGGGCTGGTTG,649
10,TTTGCGGCGAGAGTCAAGTTCCCACACCCTGTTGAA,936
11,GCACGTGTTGCCTGGGGCTGCACCACAGCACCACAC,805
12,GACGGAATGTAGGTTTTCAGCCGTGGCCACAGGAGA,700
13,CGGGCCCGCAGCAGATCCTGGATCTGGAATCTCCCG,770
14,TGGGCGCTGACCCGCAACCAGGAGGCGGCGGACACT,842
15,TCCGCCCCGCCCCGCAAACTTCCAGCCGCCCTGGGC,1060
16,TACCAACATGAATCTTTGGGGTCTAAACCGCAAACA,4540
17,TGTTGTAGGGCAAGTGGTGTGTGGTATTCCTGGGGA,749
18,TCCTGTCCCACTGTGGTTCCTGGGATTTTTGTTGTT,957
19,CAGGCAGATCAGACCACAGAAGCGGAGGAGGCGGGG,846
20,ATGTGGTTGGGGCGGGAGCGTGCGTCCTTTCTGTGT,716
21,AAAGAATGTTGCGGCCAGAGAGCAGCCGCTGTCGCT,810
22,TATTCTTCATGTACTTAAGCTTGCTGGTGTGGTTTC,878
23,CTACCGGGAGTGCGGGTCGCGCTTCAGGCGGCGTCC,724
24,GGGGAAATCGCGGTCTTAGCATTCGGCGCGCGGCGG,826
25,ACAAAGTCAGTGGTAATGTGGAACGCCCGCCAAGAG,769

row,Sequence,RUNX1 binding intensity
1,AGGCGGGCTGTGGTTAAGCAGTGCAGGGTGTAGGCT,2540
2,CCGCGCCGCTTGCTCCAGACACCGCAAGGGGGTGCT,843
3,GCAGCGCCTTAGACCGCTCGGCCATGCTGACTGCTT,706
4,AGCCAGGCAATCCGCGCCTACACAGCCCAACCACAG,951
5,AGCCAACAGAAAGCTGCAGAGACTAAACCACAGCAA,855
6,CCAGACAGATTCCTCTGGTTGTGGGTGATGGTTCCA,866
7,AGCCGTTGCCGGCGCTCTACCCCGCCGCAGGCCGAG,788
8,CTCTGCCCGATTCCGCTGGCGGTACCTCAGAGCCGC,791
9,TGGCGGCGGAGACTGCCCATGCCGCGAGGCCGCAAG,688
10,CCTTCGTTCAGCTGGCAGTAACTAGGCAGTGGTCAC,838
11,ACTCAAAAACCACCTCCCCCTCAGGGAGCAAGGAGG,819
12,CGGAGGGAAACCGCACCCCTGCCTCTTTCATGGGCC,3110
13,TACCCCGCCGTAAGCCCCCTGCTCTGTGGGAACCGG,768
14,GTGAGCTTGCCGGCGCGCGGGGGGCGGTGCGGCTTC,717
15,GACCCATAGCTGAAAATTCTACCGCACTACCTCCCT,1400
16,GCGAAAGGAACTCCCTTTGCATGCGGTCAGAGTGCT,957
17,GCCTCCATTCGGAGACCAGAAAGCCCGCAGGCAAGG,807
18,GTAAAAGGACGTAAAGGCTTGGCCGGGCGCGGTGGC,740
19,CCTGCCGAGGAGGTCCCACGTCACTGCGGTTAGAGT,1610
20,CGTGGCGGTTGAGGGGCAGTGGTGGCGGCGCAAGCC,808
21,AGTTCCAGCAACCACGGCTCCCTCTTCAGGTCCCGG,844
22,GGACGCCGCCTGAAGCGCGACCCGCACTCCCGGTAG,767
23,GGTGTGGTCAACACTGGGACAAGTTCTTTCGGGTCT,1010
24,GGACACAGGCTCCCGCGTTACCGACACCGCGTGGGG,882
25,GGGGCGGCTTCAGGCGGCGTGACCTGACCGCAAGAG,1940

row,Sequence,RUNX1 binding intensity
1,AGAGCCAGATCCCGCGCAGAGGACCGCGGCGACCGG,730
2,AGCAGCTTCACGTCTGAGGTGAAGACAGCCCGCAGC,664
3,CGGGCCCGCAGATATCACACGCACCCGAAAGTCCTC,859
4,GCCCGGCCGCCTGCGGCCCGGCTTCAGGTCCCGTCT,953
5,CTGCATGACGTGTGGTTTTCATCTTCAGCAGGCGTG,1170
6,GGTTCATGTCCTTTTCCTCCTTGTGGTATAAAAGAG,940
7,GAGAGGAGGTTGTTGTCAGATACCCACAAATGAGAA,845
8,CTCGGCCAGGGAGCACTGAGCCACTGCGGCATCGCA,677
9,GCCACTATTGCCTGCCTTCTGCGGCTGAGAGTCCCA,930
10,GTGAGTCACTGCCTGACCATGTGGGTTTTTGGTACG,846
11,GCGGGGACCTGGATGTGTGTGGTGGCGGCGGCCGAA,809
12,ACTTACGCGGAGCGGTAATGTGAGGAGGCCTCCCGC,751
13,CTTAGCACTTGTGGTCAGCCTGCTTCAGGCTGTGGC,2090
14,GGTGGTGGTGAATCCCACAATAGGAATCTTCTCTGT,1350
15,GCAGCCTCCGCGGCCCCCGCCCGGCCCGCAGCGCCA,896
16,GAGCGGGAGCGCGCCAAGGCACGTGACCGCTTCTGT,684
17,TACCTACAGCAAATGAGACACACCGCAGGCCGATCC,853
18,GCCGCGAGTTCAGCCGGGTGGACCACAAATCCCGAG,811
19,TCCTGTGGCTTTGGGGTTCCTTGTTGCCTGGGCTGG,1110
20,CTCCGCAGCATGACTCAGGGCAGCCCTGACCACAGT,792
21,GCCCCAGCGTCTCCTCTTACCCACAATGCCCCGCCC,1310
22,TCAAAGCTGCGGGGTTTCATTGCCTGTTCCTGAACA,693
23,CAAGAGGAACCTGAACTTTGGAAACCACATTCTTAT,920
24,GTCCTCTTCATGTCCCCCAGGTGGGCATGTGGTTTG,832
25,AGGCTGTTGTGGGTTGCGCCGCTTCGGAGGTGGGAG,846

row,Sequence,RUNX1 binding intensity
1,ACTTCAATTCCCAACCTCCCCTGTGGTTAGGTGTGG,1120
2,TTCTGCACCACAACTGTGCTCTGAGTTCAGGCAACT,926
3,TTATGCCTCAGAATGAACGAACCTCAAACACCCAGG,853
4,CGGGTTCAGGACCGCTGATCGGAGGTGAGAATCCCA,693
5,GTCCTCCAGCAAGCCCGCGCTAACCACCGTGCCTTT,1180
6,GAGTGCCGATTCCCCCGCTCACCGCGGGCTAGGGAG,770
7,GTATCAGCCGCGCCGCAGTCGGAGGAGATAGACGCT,726
8,GTTGCCCCACCTCCTGCCAGTGGTTTTTGGTTGGCC,947
9,ATTACATACGGGCTCCGCGACACGCCCGAACCACAA,863
10,GGAGACCCGGCAAGGCTCCATCCAGCGGTGGCGACA,763
11,GTATCAATTCCCAGCTAAGAGCCCCACAGACTCTAA,895
12,AAAGAGGCAATCACGTACCCGAAAACCACATGCACA,1080
13,CTACCGTGCCCACAAGGCAGCGCGCCGTAAGCCCCG,1040
14,AGCTCTGCCAGCAAGTGAGAACCACAGGCCTCCCCT,850
15,GTCGGCAGTGGCCGTGAGCCCAAGCCGCGGTCCCGG,757
16,TGCTTCTGCGGTGGCAGTGGATTCCTCTGGCAAGGG,1330
17,TGACTCGCGGTCTTGTTATCAGTTGCCGGGATGACA,924
18,CCAAGACCACAGCTCCAAGAGACCTTTCTGTTTATT,1130
19,CTAGCCCAGAAAGCCGCAGCAGCTTGCTCAGGGACG,830
20,TTTACGGAATGTAGGCGGCGGCGGCGGTAGTGGTAG,716
21,GCGCGCTTCGGCCTTCATGCTAGCAACGCCCGCAGT,690
22,CGGTGCGGTGAGCTCGACACTCAATTCCCTGTGCAG,858
23,TTGGGTTCGTGCCAACGCTCTCCAACCACTGCGTAA,811
24,ATCTCCAGATCCTCCCCATCGACCGCATGGTTTACC,1080
25,GGGGGAGTTTTCGCAAGCGCTAACCGCGTTGGGGCC,830
